From PubChem BioAssay AID504332 (National Center for Advancing Translational Sciences (NCATS), 2011)
“And” between values parts separate entries of the source, which are not always exact repeats. Equal values may be shown once. Hit rate of the full screen: of about 350,000 compounds, about 31,000 (8.9%) were called active. The shares of active, inactive and inconclusive entries below differ from those in the screen. The call rests on the fitted dose curve; in most records, active means well fitted inhibition curve with a large enough effect; inconclusive means small, poorly fitted or top-dose-only effect; inactive means no such curve, though single readings can be large or run the other way. Potencies of inconclusive entries are doubtful fits and often do not repeat.

Target: Histone-lysine N-methyltransferase EHMT2 (Homo sapiens) (UniProt Q96KQ7)
Chain of UniProt Q96KQ7 (Q96KQ7 whole entry, looked up): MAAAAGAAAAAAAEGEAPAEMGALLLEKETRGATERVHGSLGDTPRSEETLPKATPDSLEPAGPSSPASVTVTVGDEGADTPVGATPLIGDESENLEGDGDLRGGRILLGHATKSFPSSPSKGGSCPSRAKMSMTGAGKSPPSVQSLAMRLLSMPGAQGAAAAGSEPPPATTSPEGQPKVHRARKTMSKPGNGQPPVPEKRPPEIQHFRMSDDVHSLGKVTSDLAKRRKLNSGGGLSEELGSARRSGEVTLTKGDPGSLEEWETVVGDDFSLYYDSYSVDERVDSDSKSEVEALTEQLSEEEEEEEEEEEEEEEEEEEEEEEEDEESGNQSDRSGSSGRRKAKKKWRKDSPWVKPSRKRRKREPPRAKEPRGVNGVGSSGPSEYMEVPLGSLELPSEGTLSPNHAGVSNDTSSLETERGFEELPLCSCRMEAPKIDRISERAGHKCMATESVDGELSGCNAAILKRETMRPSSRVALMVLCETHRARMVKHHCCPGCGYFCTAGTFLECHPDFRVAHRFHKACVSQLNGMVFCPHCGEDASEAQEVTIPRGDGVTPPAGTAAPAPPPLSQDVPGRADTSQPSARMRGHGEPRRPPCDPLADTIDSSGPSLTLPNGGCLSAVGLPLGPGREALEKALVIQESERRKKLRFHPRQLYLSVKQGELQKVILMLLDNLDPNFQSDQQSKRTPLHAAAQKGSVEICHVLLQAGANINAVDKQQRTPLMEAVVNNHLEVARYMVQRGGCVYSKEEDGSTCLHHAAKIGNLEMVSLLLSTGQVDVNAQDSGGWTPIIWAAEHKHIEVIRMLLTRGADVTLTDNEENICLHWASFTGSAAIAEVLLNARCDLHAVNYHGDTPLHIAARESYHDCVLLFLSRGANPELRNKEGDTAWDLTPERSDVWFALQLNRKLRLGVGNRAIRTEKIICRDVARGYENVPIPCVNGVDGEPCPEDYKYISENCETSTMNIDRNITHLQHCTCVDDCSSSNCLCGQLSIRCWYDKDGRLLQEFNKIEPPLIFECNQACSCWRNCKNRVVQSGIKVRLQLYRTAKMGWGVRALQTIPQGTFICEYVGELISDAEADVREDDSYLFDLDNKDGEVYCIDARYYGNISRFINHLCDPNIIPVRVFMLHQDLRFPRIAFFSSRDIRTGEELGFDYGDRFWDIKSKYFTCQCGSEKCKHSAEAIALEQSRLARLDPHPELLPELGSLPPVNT
Test: qHTS Assay for Inhibitors of Histone Lysine Methyltransferase G9a; further: nearly all actives have a fitted effect of over 75% in size
Details: G9a H3K9 monomethylation, AlphaScreen, 2 h; activity, negative = inhibition: at 59 µM (top of the series) unless noted
Method in brief: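 Enzyme 20 nM + cpd, 15 min RT; add b-H3K9 pep 500 nM / SAM 20 uM; 2 h RT; anti-H3K9me1 Ab 0.5 ug/mL + SA donor / anti-rabbit acceptor beads 20 ug/mL each, 10 min; AlphaScreen read.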
On the % scale 0 is the no-effect control and ±100 the full control effect; potency means the concentration at half of the fitted maximal effect; tags describe the fitted curve by direction and shape.

Question: For `COc1ccccc1NC(=O)CSc1oc(-c2ccc(F)cc2)nc1S(=O)(=O)c1ccc(Br)cc1`, which “activity, negative = inhibition” value is on record?
Answer: inactive: -22.1%

Question: With `COc1ccc(N2CCN(C(=O)c3csc4ccccc34)CC2)cc1` as the molecule, how does the Potency read?
Answer: active: 20 µM

Question: With `CC(C)(C)c1ccccc1NC(=O)c1cnn2c(C(F)F)cc(-c3ccccc3)nc12` as the molecule, how does the “activity, negative = inhibition” value read?
Answer: inactive: -22.2%

Question: With `S=c1[nH]nc(-c2ccccc2)n1/N=C/C=C/c1ccco1` as the molecule, how does the Potency read?
Answer: active: 1.26 µM

Question: With `COc1ccc(Nc2ccnc(Nc3ccc(OC)cc3)n2)cc1` as the molecule, how does the Potency read?
Answer: inconclusive: 35.5 µM [inhibitor, single point]

Question: For `Cc1ccc(C)c(-n2c3nc(=O)[nH]c(=O)c-3cc3cc([N+](=O)[O-])ccc32)c1`, which Potency is on record?
Answer: active: 10 µM

Question: For `CC1CCN(Cc2nnnn2CCCC(=O)N(C)C(C)c2ccccn2)CC1` (configuration not stated), which Potency is on record?
Answer: inconclusive: 89.1 µM [inhibitor, single point]

Question: How did the “activity, negative = inhibition” value turn out when `Cc1cc(Cl)nc(SCC(=O)c2ccccc2)n1` was run?
Answer: inactive: 43.7% [at 102 µM]

Question: `Cc1ccccc1CNC(=O)c1ccc2[nH]c(C)c(C)c2c1` was tested. Which Potency did it give?
Answer: inconclusive: 28.2 µM [inhibitor, single point]

Question: Which Potency does the source give for `Cc1cccc(N2CCN(C(=O)CSc3nnnn3C3CC3)CC2)c1C` here?
Answer: inconclusive: 5.62 µM [inhibitor, single point]

Question: `O=C(CN1C(=O)CC(c2ccco2)Sc2ccccc21)Nc1ccccc1F` (configuration not stated) was tested. Which Potency did it give?
Answer: inconclusive: 39.8 µM [inhibitor, single point]

Question: `O=C(c1ccc(S(=O)(=O)N2CCC(c3nc4ccccc4[nH]3)CC2)cc1)N1CCOCC1` was tested. Which Potency did it give?
Answer: active: 7.94 µM

Question: Which Potency does the source give for `CC1(C)C2CCC1(C)C(NCC(O)COc1ccc(C#N)cc1)C2` (configuration not stated) here?
Answer: inconclusive: 20 µM [inhibitor, single point]

Question: Which activity, negative = inhibition does the source give for `CCCn1nc(C(=O)NNC(=O)CCCOc2ccc(OC)cc2)c2ccccc2c1=O` here?
Answer: inactive: 16.9% [at 12.7 µM]

Question: `CSc1cccc(NC(=O)CN2C(=O)COc3ccc(S(=O)(=O)N4CCC(C)CC4)cc32)c1` was tested. Which “activity, negative = inhibition” value did it give?
Answer: inactive: -5.7%

Question: For `CCOC(=O)C(C(=O)OCC)C(C[N+](=O)[O-])c1ccccc1` (configuration not stated), which “activity, negative = inhibition” value is on record?
Answer: inactive: 8.43% [at 102 µM]

Question: Which Potency does the source give for `O=c1[nH]c(-c2ccccc2)c(-c2ccccc2)[nH]1` here?
Answer: inconclusive: 79.4 µM [inhibitor, single point]

Question: Which activity, negative = inhibition does the source give for `CN1CCCN(C(=O)CC2(CC(=O)O)CCCCC2)CC1` here?
Answer: inconclusive: -96.1% [inhibitor]

Question: How did the Potency turn out when `Cn1ncc(Br)c1C(=O)NC(=S)N1CCN(c2ccccn2)CC1` was run?
Answer: inconclusive: 22.4 µM [inhibitor, single point]

Question: Which Potency does the source give for `CC(=O)N1C(=O)/C(=C2\SC(=S)N(NC(=O)c3ccc(O)cc3)C2=O)c2ccccc21` here?
Answer: inconclusive: 31.6 µM [inhibitor, partial curve, poor fit]

Question: For `Cc1cc(S(=O)(=O)Nc2nc(CN3CCOCC3)nc3sc4c(c23)CCCC4)ccc1F`, which Potency is on record?
Answer: inconclusive: 89.1 µM [inhibitor, single point]

Question: For `Cc1cc(C)cc(Nc2cc(C)nc3nc(-c4ccco4)nn23)c1`, which Potency is on record?
Answer: inconclusive: 22.4 µM [inhibitor, partial curve, poor fit]

Question: `CCc1ccc(NC(=O)C(=O)NCCN2CCN(C(=O)c3ccco3)CC2)cc1` was tested. Which Potency did it give?
Answer: inconclusive: 39.8 µM [inhibitor, single point]

Question: With `COC(=O)c1ccccc1S(=O)(=O)N1CCCC(c2nc3c(nnn3Cc3ccc(C)cc3)c(=O)[nH]2)C1` (configuration not stated) as the molecule, how does the Potency read?
Answer: inconclusive: 89.1 µM [inhibitor, single point]

Question: `COc1cc(/C=C2/C(=N)N3C(=NC2=O)SN=C3S(C)(=O)=O)ccc1OC(=O)c1ccco1` was tested. Which activity, negative = inhibition did it give?
Answer: inconclusive: -117% [inhibitor]

Question: `COc1ccc(-c2cn(CCO)c(CCN)n2)cc1` was tested. Which activity, negative = inhibition did it give?
Answer: inconclusive: -59.7% [inhibitor] [at 2.33 µM]

Question: How did the Potency turn out when `CC1=NN(C(N)=S)C(=O)C1N=Nc1cccc(C(=O)O)c1` (configuration not stated) was run?
Answer: active: 0.708 µM

Question: Which Potency does the source give for `C/C(CCC(C)C)=N\NC(=S)Nc1cc(S(=O)(=O)N2CCOCC2)ccc1N1CCOCC1` here?
Answer: active: 25.1 µM

Question: With `O=c1cnc2cnc(Oc3ccccc3)nc2n1C1CC1` as the molecule, how does the activity, negative = inhibition read?
Answer: inactive: 2.52% [at 0.501 µM]

Question: For `c1ccc(-c2csc(NC3=NCCCCC3)n2)cc1`, which “activity, negative = inhibition” value is on record?
Answer: inactive: 13.9%

Question: `Cc1cc(N2CCC(C(=O)NCCC(C)C)CC2)n2nc(C)c(-c3ccc(Cl)cc3)c2n1` was tested. Which “activity, negative = inhibition” value did it give?
Answer: inactive: -27.3%

Question: How did the Potency turn out when `CC(C)(C)OC(=O)N/N=C/c1cccn1-c1ccc([N+](=O)[O-])cc1` was run?
Answer: active: 8.91 µM

Question: Which activity, negative = inhibition does the source give for `CCOC(=O)c1c(C)n(C)c2cc(Br)c(C(=O)OC)cc12` here?
Answer: inconclusive: -68.5% [inhibitor]

Question: For `CCOC(=O)c1c(NC(=O)c2cc(-c3ccc(Cl)cc3)on2)sc(C)c1C`, which Potency is on record?
Answer: active: 8.91 µM

Question: `COc1c(OC(C)=O)ccc(/C=N\NC(=O)c2ccc(Br)cc2)c1[N+](=O)[O-]` was tested. Which “activity, negative = inhibition” value did it give?
Answer: inactive: -5.36% [at 102 µM]

Question: `CN(c1ccccc1)c1nc(N)c([N+](=O)[O-])c(Nc2ccccc2F)n1` was tested. Which activity, negative = inhibition did it give?
Answer: inactive: -4.44% [at 2.33 µM]

Question: With `Cc1cc(C)cc(N2C(=O)CCSC23C(=O)N(Cc2ccccc2)c2ccccc23)c1` (configuration not stated) as the molecule, how does the Potency read?
Answer: inconclusive: 10 µM [inhibitor, partial curve, poor fit]

Question: Which Potency does the source give for `C=CCN1C(=O)c2ccc(C(=O)N3CCN(S(=O)(=O)c4cccc(F)c4)CC3)cc2C1=O` here?
Answer: inconclusive: 79.4 µM [inhibitor, single point]

Question: How did the “activity, negative = inhibition” value turn out when `O=C(CS)Nc1ccc2ccccc2c1` was run?
Answer: inactive: 15.4% [at 102 µM]

Question: Which Potency does the source give for `Cc1ccc(CN2CCN(Cc3nc4ccccc4nc3C)CC2CCO)cc1` (configuration not stated) here?
Answer: inconclusive: 25.1 µM [inhibitor, single point]

Question: `O=C(NCCN1CCOCC1)c1cc(-c2ccco2)on1` was tested. Which Potency did it give?
Answer: inconclusive: 25.1 µM [inhibitor, single point]

Question: How did the Potency turn out when `COc1ccc(-c2nc(-c3ccccc3)c(-c3ccc(F)cc3)[nH]2)c(OC)c1C` was run?
Answer: inconclusive: 8.91 µM [inhibitor, partial curve, poor fit]

Question: `Cc1ccc(Cl)cc1NC(=O)Cn1ncc2c(C)n(Cc3ccccc3F)c(C)c2c1=O` was tested. Which “activity, negative = inhibition” value did it give?
Answer: inactive: -24.4%

Question: How did the Potency turn out when `CN(C)S(=O)(=O)c1ccc(C(=O)Nc2ccc(S(=O)(=O)NC3=NCCCCC3)cc2)cc1` was run?
Answer: inconclusive: 12.6 µM [inhibitor, partial curve]

Question: How did the Potency turn out when `COCCNc1nc(SC)nc2sc3c(c12)CCN(C)C3` was run?
Answer: inconclusive: 79.4 µM [inhibitor, single point]

Question: With `COc1ccnc(NCc2ccc(Cl)cc2)c1C#N` as the molecule, how does the activity, negative = inhibition read?
Answer: inconclusive: -62.6% [inhibitor] [at 12.7 µM]

Question: `Cc1ccc(NC(=S)NCC(O)c2ccccc2)c(C)c1` (configuration not stated) was tested. Which “activity, negative = inhibition” value did it give?
Answer: inactive: 12.4% [at 102 µM]

Question: `CCOC(=O)c1ccn(-c2nc(-c3cccc(OC)c3)cc(C(F)(F)F)n2)n1` was tested. Which “activity, negative = inhibition” value did it give?
Answer: inactive: 5.82%

Question: `O=C(O)c1cccc(Oc2ncnc3sc4c(c23)CCCC4)c1` was tested. Which Potency did it give?
Answer: inconclusive: 89.1 µM [inhibitor, single point]

Question: How did the Potency turn out when `Cc1nc2sccn2c(=O)c1S(=O)(=O)Nc1ccc(N2CCN(C(=O)C(C)C)CC2)cc1` was run?
Answer: inconclusive: 447 nM [inhibitor, full curve, poor fit] and inconclusive: 89.1 µM [inhibitor, single point]

Question: Which “activity, negative = inhibition” value does the source give for `CC(C)c1ccc(NC(=O)CCn2c(=O)c3cccn3c3ccccc32)cc1` here?
Answer: inactive: -24.4%

Question: Which “activity, negative = inhibition” value does the source give for `COc1cccc2sc(=NC(=O)CCS(=O)(=O)c3ccc(C)cc3)n(C)c12` here?
Answer: inactive: 16.7%

Question: For `C[C@@H]1C[C@@H]([C@@H](C)CC2CC(=O)NC(=O)C2)C(=O)[C@@H](C)C1`, which “activity, negative = inhibition” value is on record?
Answer: inactive: 19.6%

Question: `Cc1ccc(C(CC(=O)Nc2ccc(F)c(Cl)c2)N2Cc3ccccc3C2=O)cc1` (configuration not stated) was tested. Which “activity, negative = inhibition” value did it give?
Answer: inactive: 6.97%

Question: For `COc1ccc(NC(=O)C2CCCN2S(=O)(=O)c2cccc3cccnc23)c(OC)c1` (configuration not stated), which Potency is on record?
Answer: inconclusive: 79.4 µM [inhibitor, single point]

Question: Which “activity, negative = inhibition” value does the source give for `O=C1Nc2ccccc2O/C1=C\c1ccccc1Br` here?
Answer: inactive: 6.56% [at 102 µM]

Question: `Cc1nc(-c2ccc(S(=O)(=O)N3CCN(C(c4ccccc4)c4ccccc4)CC3)s2)cs1` was tested. Which Potency did it give?
Answer: inconclusive: 56.2 µM [inhibitor, partial curve, poor fit]

Question: Which Potency does the source give for `Cc1cc(C(=O)COC(=O)c2ccncc2)c(C)n1Cc1ccco1` here?
Answer: inconclusive: 50.1 µM [inhibitor, partial curve]

Question: Which Potency does the source give for `O=C(COC(=O)C1CC(=O)N(c2ccc3c(c2)OCCO3)C1)NC1CCCc2ccccc21` (configuration not stated) here?
Answer: active: 79.4 µM

Question: For `CCOc1ccccc1C1C(C#N)=C(N)Oc2cc(C)n(C)c(=O)c21` (configuration not stated), which “activity, negative = inhibition” value is on record?
Answer: inactive: -7.97%

Question: Which “activity, negative = inhibition” value does the source give for `COc1ccc(/C=C2\SC(=S)N(CCCC(=O)NNC(=O)c3ccccc3O)C2=O)cc1` here?
Answer: inactive: 2.19% [at 102 µM]

Question: How did the activity, negative = inhibition turn out when `CC(C)(C)NC(=O)CSc1nnc(-c2ccco2)n1Cc1ccco1` was run?
Answer: inactive: -4.55% [at 12.7 µM]

Question: For `CCOc1ccc(C(c2c(O)cc(C)n(Cc3ccco3)c2=O)N2CCN(c3ccccc3)CC2)cc1` (configuration not stated), which Potency is on record?
Answer: inconclusive: 31.6 µM [inhibitor, single point]

Question: How did the activity, negative = inhibition turn out when `Cn1c(CN2CCCCC2)nc2cc(NC(=O)c3ccccc3)ccc21` was run?
Answer: inconclusive: -57% [inhibitor]

Question: Which Potency does the source give for `CCCCCCOC(=O)C(C#N)c1nc2ccccc2nc1N1CCOCC1` (configuration not stated) here?
Answer: inconclusive: 1.78 µM [inhibitor, partial curve, poor fit]

Question: Which Potency does the source give for `NC(=O)c1ccc(NC(=O)CCCc2nc(-c3ccccc3Cl)no2)cc1` here?
Answer: active: 50.1 µM

Question: Which “activity, negative = inhibition” value does the source give for `NC(=O)[C@@H]1CCCN1` here?
Answer: inactive: 13.6%

Question: For `Cc1ccccc1C(=O)NC(=S)Nc1ccc(S(=O)(=O)N2CCN(C)CC2)cc1`, which “activity, negative = inhibition” value is on record?
Answer: inactive: -44.3%

Question: Which Potency does the source give for `COc1ccc(Cc2nnc(SC)[nH]c2=O)cc1OC` here?
Answer: inconclusive: 89.1 µM [inhibitor, single point]

Question: With `Cc1cc(NC(=O)COc2ccccc2C#N)no1` as the molecule, how does the “activity, negative = inhibition” value read?
Answer: inactive: 14.3%

Question: Which Potency does the source give for `C=CCN1C(=O)C(Cc2ccccc2)SC1=Nc1ccc(C(=O)O)cc1` (configuration not stated) here?
Answer: inconclusive: 5.01 µM [inhibitor, full curve, poor fit]

Question: Which activity, negative = inhibition does the source give for `CCOC(=O)CS(=O)(=O)c1nc(-c2ccc(F)cc2)cc(C(F)(F)F)n1` here?
Answer: inconclusive: -84.2% [inhibitor]
